Assay results from patent US5473039A, “Polypeptide analogs of apolipoprotein E, diagnostic systems and methods using the analogs” (The Scripps Research Institute, priority 1991, dated 1995).
Where two headings read alike, the source gives them in different places. Part of at least one peptide drawing is inferred or uncertain, most often the ends. Ends that are not written are not given here.

Key:
[1] = tested on: ovarian theca/interstitial cells; assay: ovarian androgen (androstenedione) production, LH-stimulated cultures; type: cell-based, rats; conditions: non-conjugated, monomeric form
Text: The cell system used to examine the effect of various peptides and conjugates on ovarian androgen production was that described by Curtiss et al., J. Biol. Chem., 263:10965, (1988). Briefly, hypophysectomized (pituitary removed) immature female rats are sacrificed by cervical dislocation. The ovaries taken from the rats were trimmed free of fat and other non-ovarian tissues, cut into approximately six to eight pieces per ovary and dissociated in a solution of collagenase Dnaase which degrades the connective tissue releasing cell clusters. Approximately one to two hours of 37C incubation is required to dissociate the tissue. The cells were washed three times with fresh McCoy's 5A modified medium supplemented with glutamine and penicillin/streptomycin. No serum was added to this medium. The cells were cultured over night in 10 ml of medium in a T-25 flask to allow the non-steroidogenic cells to adhere. The next day non-adherent cells were recovered, washed three times with fresh media, counted and plated at a density of 1×10^3/ ml aliquotting 0.2 ml per well of a 96-well microtiter plate. All media in the experiment contains luteinizing hormone (LH) at 4 ng/ml and human high density lipoprotein (HDL) at 300 μg protein/mi. Monomeric peptides, peptide-BSA conjugates and self-conjugated peptide preparations at various concentrations (0.2 to 50 μg/ml) were added to the cells. The cells were then cultured for 48 hours at 37C, the supernatants were recovered, transferred to a clean 96-well microtiter plate and kept at -20C until the concentrations of androstenedione and progesterone were measured by radioimmunoassay. Each data point represents the average of measured androstenedione concentrations in four wells per treatment, and the standard error was less than 10% for all data points.
The ability of tandem Apo E peptide p(141-155)2 and self-conjugates of this peptide to affect ovarian androgen production was examined using the assay described in Example 4. Increasing concentrations of tandem Apo E peptide were added to ovarian cells (8×10^4 /ml) that were cultured at 37C in serum-free McCoy's 5a modified medium containing 4 ng/ml of LH and 300 μ/ml of human HDL. After 48 hours of culture, the supernatants were collected, the androstenedione concentration measured by radioimmunoassay. When tandem Apo E peptide was added in concentrations less than about 0.04 μg/ml, androstenedione production was enhanced. Concentrations of tandem Apo E peptide greater than about 0.2 to 2 μg/ml inhibited androstenedione production in a dose-dependent manner.

LDL receptor = LDL receptor (Homo sapiens, UniProt P01130); assay: 125I-LDL degradation by unstimulated THP-1 cells; type: cell-based; parameters: In the undifferentiated state THP-1 cells express LDL receptors that are regulated by the lipoprotein content of the culture medium; host or cells: THP-1 cells (unstimulated)
Text: THP-1 cells were acquired from American Type Culture Collection and cultured in serum-free RPMI-1640 medium supplemented with 1% Nutridoma-HU for 48 hr to upregulate the LDL receptors. LDL was isolated by ultracentrifugation and radiolabeled using the iodine monochloride method as described in Example 8 to a specific activity 200-300 cpm/ng. Greater than 99% of the ^125 I-LDL ligand was precipitable by 10% TCA. The peptides indicated in FIGS. 1A and 1B were synthesized, as described in Example 1, purified to >95% by high pressure liquid chromatography and the amino acid composition verified. All peptides were solubilized in PBS. "AI 74-105"is a control peptide derived from residues 74-105 of apolipoprotein AI, "Monomer" is p(141-155), "Tandem Peptide" is p(141-155)2, "LDL" is unlabelled LDL, and "aLDL" is acetylated LDL.
Binding and degradation of LDL was evaluated as the disappearance of acid soluble ^125 I-LDL radioactivity from the incubation over a 5-hour incubation at 37C. […]
For assay, 5×10^5 THP-1 cells in 0.5ml DMEM were co-incubated in a 1.5ml microfuge tube with 2-5 μg/ml of ^125 I-LDL at 37° C. in the presence of various concentrations of competitors indicated in FIGS. 1A and 1B. After 5 hr the cells were pelleted at 5000 x g, the supernatants were removed and the supernatants were extracted with 10% TCA and counted to form a TCA soluble cpm. […]

[2] = tested on: Human peripheral blood mononuclear (PBM) cells; assay: PHA-stimulated lymphocyte proliferation (3H-thymidine uptake); type: cell-based
Text: A lymphocyte cell culture system was used to examine the ability of various polypeptides and conjugates to mimic the ability of Apo E to inhibit lymphocyte differentiation as evidence by proliferation.
Human peripheral blood mononuclear (PBM) cells are isolated from whole blood on a Ficoll-Hypaque gradient. The collected PBMs are washed three times with fresh medium (RPMI-1640 plus 5% fetal bovine serum, glutamine, penicillin, streptomycin and HEPES buffer). After washing, the cells are counted and set at a density of 1×10^5 /ml. For culture, 0.2 ml of the cells are plated per well of a 96-well microtiter plate. The peptide or conjugate is added to the wells in a 50 ul volume that can be either filter or UV sterilized. The typical timing for this experiment is to expose the cells to the Apo E polypeptide or self-conjugate over night. PHA, the mitogen that stimulates lymphocyte growth and proliferation, is added the next day. […]
Various concentrations of various Apo E peptide were added to cultures that contained 8×10^5 peripheral blood mononuclear cells per ml. […] The counts per minute (cpm) of 3H-thymidine in the harvested cells was measured, and the data are expressed as the mean of four wells per treatment as a measure of thymidine uptake (x 1000 cpm). […]

[3] = tested on: Human peripheral blood mononuclear (PBM) cells; assay: PHA-stimulated PBM cell proliferation in serum-free CFBI medium; type: cell-based; conditions: for IC50: read-out: Average Specific Activity (peptide concentration that causes a 50% reduction in activity)
Description: In these studies, human peripheral blood mononuclear (PBM) cells were isolated and assayed for phytohemagglutinin (PHA)-stimulated proliferation as described by Pepe et al (J. Immunol., 136:3716-3723, 1986) except that the cells were resuspended and cultured in a serum-free and protein-free CFBI medium as described by Shive et al, Proc. Natl. Acad. Sci. […] After 48 h the cultures were pulsed for 18 h with […] of [^3 H]-methylthymidine and harvested onto glass fiber filters. Radioactivity of the filters was counted in a Beckman liquid scintillation counter. […] The average biological activity of each polypeptide for inhibiting lymphocyte […] proliferation is shown in Table 6, and is expressed as an average specific activity, which is the peptide concentration that causes a 50% reduction in activity.

LDL receptor, sequence (P01130 22-860): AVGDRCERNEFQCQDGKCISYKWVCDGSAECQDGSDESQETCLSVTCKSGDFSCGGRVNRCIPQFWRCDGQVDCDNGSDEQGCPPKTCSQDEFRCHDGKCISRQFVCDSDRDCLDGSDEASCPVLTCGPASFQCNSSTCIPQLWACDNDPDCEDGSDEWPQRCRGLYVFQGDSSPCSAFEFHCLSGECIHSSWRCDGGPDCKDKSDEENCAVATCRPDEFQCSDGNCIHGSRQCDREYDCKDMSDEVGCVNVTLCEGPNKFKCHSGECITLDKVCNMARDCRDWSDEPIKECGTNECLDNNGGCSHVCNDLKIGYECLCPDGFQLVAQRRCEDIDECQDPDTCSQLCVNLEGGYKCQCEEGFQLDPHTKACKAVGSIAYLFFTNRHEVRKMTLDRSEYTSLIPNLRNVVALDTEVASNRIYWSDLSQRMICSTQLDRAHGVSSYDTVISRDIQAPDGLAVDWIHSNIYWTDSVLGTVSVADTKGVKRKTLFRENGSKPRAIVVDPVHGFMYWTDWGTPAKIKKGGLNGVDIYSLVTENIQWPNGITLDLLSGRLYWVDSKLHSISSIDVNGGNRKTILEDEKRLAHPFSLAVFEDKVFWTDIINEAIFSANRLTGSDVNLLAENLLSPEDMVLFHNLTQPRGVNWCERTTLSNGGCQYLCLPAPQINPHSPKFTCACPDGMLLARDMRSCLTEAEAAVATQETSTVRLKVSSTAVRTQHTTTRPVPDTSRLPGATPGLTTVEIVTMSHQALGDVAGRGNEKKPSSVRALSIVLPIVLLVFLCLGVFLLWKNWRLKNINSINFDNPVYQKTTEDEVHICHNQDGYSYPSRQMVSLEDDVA

RDADDLQKRLA [p150-160, RDADDLQKRLA] was tested, and the “effect on androgen secretion” value [1] was “no effect”.

For REGAERGLSA [p167-176, REGAERGLSA], the “effect on androgen secretion” value [1] was “no effect”.

With SHLRKLRKRLL [p139-149, SHLRKLRKRLL] the “effect on androgen secretion” value [1] was “no effect”.

“LRKLRKRLLRDADDL [p141-155, LRKLRKRLLRDADDL]” was tested, and the “inhibition of 125I-LDL degradation” value (LDL receptor) was “neither a control apo A-I 74-105 peptide or the monomer apo E 141-155 peptide LDL inhibited”, the “effect on androgen secretion” value [1] was “no effect” and the “effect on lymphocyte proliferation” value ([2]; non-conjugated, monomeric form) was “no effect”. The “Average Specific Activity (peptide concentration that causes a 50% reduction in activity)” value [3] was “None”.

In the case of “RKRLLRDADDLRKRLLRDADDL [(145-155)2, (RKRLLRDADDL)2]”, the “Average Specific Activity (peptide concentration that causes a 50% reduction in activity)” value [3] is reported as “None”.

RKRLLRDADD [p145-154, RKRLLRDADD] was tested, and the “effect on androgen secretion” value [1] was “no effect”.

With “LRKPRKRLLRDADDLLRKPRKRLLRDADDL [144 leu--pro, (LRKPRKRLLRDADDL)2]” the “effect of substitution on biological activity (lymphocyte proliferation)” value ([2]; Example 18, substitution in both repeats) was “substantially reduced the biological activity”, the “Average Specific Activity (peptide concentration that causes a 50% reduction in activity)” value [3] was “None” and the “biologic activity (inhibition of lymphocyte proliferation)” value [3] was “essentially eliminated the biologic activity”.

In the case of “STEELRVRLASHLRKLRKRLLRDADDLQKRLAVYQ [Peptide 129-162, STEELRVRLASHLRKLRK-RLLRDADDLQKRLAVYQ]”, the “Average Specific Activity (peptide concentration that causes a 50% reduction in activity)” value [3] is reported as “None” and the “biologic activity (inhibition of lymphocyte proliferation)” value [3] is reported as “no biologic activity”.

“LLRKLLRKLLRKLLRKLLRKLLRKLLRKLLRK [(LLRK)8]” gave an IC50 [3] of 1100 ± 400 nM.

For LRKLRKRLLRLRKLRKRLLR [p(141-150)2], the “peptide concentration above which uptake of tritiated thymidine / lymphocyte proliferation was inhibited” value [3] was “above 3 uM” and the IC50 [3] was 4900 ± 1200 nM.

“LLRKLLRKLLRKLLRK [(LLRK)4, LLRKLLRKLLRKLLRK]” was tested, and the IC50 [3] was 1600 ± 500 nM.

For VYQAGAREGAE [p161-171, VYQAGAREGAE], the “effect on androgen secretion” value [1] was “no effect”.

For “LSAIRERLGPLVEQGRVRAATVGSLAGQPL [p174-203]”, the “effect on androgen secretion” value [1] was “no effect”.

In the case of LRKRLLRLRKRLLR [(144-150)2, (LRKRLLR)2], the “Average Specific Activity (peptide concentration that causes a 50% reduction in activity)” value [3] is reported as “None” and the “biologic activity (inhibition of lymphocyte proliferation)” value ([3]; at concentrations of > 210 μM) is reported as “no biologic activity”.
